The supplement of paper PMC4166925
± gives the standard deviation of the averaged measurements. Whole data set: some 33,000 sequences, median “E-score (dimensionless, -0.5 to 0.5)” near -0.046, cut for the highest 2% near 0.36. This is one part of the list.

test system: T1, SpTbr T-box DNA-binding domain (GST fusion); test: PBM E-score of 8-mer (E-score (dimensionless, -0.5 to 0.5)); Tbr is Tbrain of the sea star Patiria miniata (Pm) or the sea urchin Strongylocentrotus purpuratus (Sp); higher = stronger binding preference; most listed sequences are background and not binding sites; details: the construct has about 5 more residues each side
T1 sequence: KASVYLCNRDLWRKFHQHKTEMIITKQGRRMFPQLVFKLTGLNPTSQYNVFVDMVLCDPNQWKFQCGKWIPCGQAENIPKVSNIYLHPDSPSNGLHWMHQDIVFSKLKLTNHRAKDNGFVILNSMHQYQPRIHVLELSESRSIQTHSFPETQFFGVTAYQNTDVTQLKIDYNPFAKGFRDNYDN
In short: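 Universal Agilent oligonucleotide arrays, made double-stranded by primer extension, were incubated with 200 nM GST-fused Tbr T-box DNA-binding domain in PBS (pH 7.5). The protein was expressed in BL21 E. coli at 20 °C and purified by glutathione affinity chromatography. After scanning and quantification, the Universal PBM Analysis Suite assigned an enrichment E-score to each ungapped 8-mer, averaged over duplicate arrays.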

Sequence | PBM E-score of 8-mer
CGTCAGAC | 0.0903 ± 0.024
AACGGCGC | 0.129 ± 0.017
CGTCCGAA | -0.15 ± 0.01
GTCTTTTA | -0.274 ± 0.026
CACGGCAG | 0.156 ± 0.053
CACCTAAC | 0.387 ± 0.018
CTGGTTTA | -0.0997 ± 0.028
TCTCGACA | 0.281 ± 0.025
AGTACACA | 0.128 ± 0.039
GCTTTCGA | 0.00483 ± 0.021
CAACTGTA | 0.0659 ± 0.076
CCACTTCG | 0.193 ± 0.017
ATTGTTTC | 0.00545 ± 0.088
ATGTCAGG | -0.167 ± 0.014
CCCGAGGA | -0.313 ± 0.024
CGACGCAG | -0.117 ± 0.065
TCCCGTAA | -0.116 ± 0.089
AGAGAAAG | 0.0125 ± 0.053
AACAGCTG | 0.0403 ± 0.023
AACTGCAC | -0.05739 ± 0.00026
GCTGAAGA | 0.0463 ± 0.025
CAGCTACC | 0.00277 ± 0.0031
CAATCCGG | -0.196 ± 0.11
ATTGCTCA | -0.124 ± 0.025
ATTTGCTC | -0.284 ± 0.0053

Sequence | PBM E-score of 8-mer
AGATTGTG | 0.142 ± 0.044
AAGACAAA | -0.0111 ± 0.03
CAGCGGAC | -0.107 ± 0.053
TAAAGGTA | 0.0101 ± 0.069
CTTTGATC | -0.228 ± 0.015
CACTAAAG | 0.107 ± 0.035
ATACCTCA | 0.073 ± 0.05
ATTACAAC | 0.107 ± 0.062
CTGGATTC | -0.152 ± 0.045
ACTTCCTC | -0.118 ± 0.09
CAGCCCTG | -0.283 ± 0.057
AGCTGCCA | 0.111 ± 0.099
CAAACTAC | -0.0974 ± 0.03
GCTCCCAC | -0.0817 ± 0.077
CGTTCCGC | -0.226 ± 0.053
CGCAACAG | 0.0408 ± 0.041
CCCACTTA | 0.08683 ± 0.00027
CCAGATCG | -0.0268 ± 0.026
ATTTTCAA | -0.231 ± 0.028
ACATAGAA | -0.0909 ± 0.069
AATTTACG | 0.0254 ± 0.03
ACCAGTCG | -0.0587 ± 0.076
AAGTCGGC | -0.0769 ± 0.0057
CAGAGAAA | 0.119 ± 0.0044
ATCGTGTC | 0.173 ± 0.052

Sequence | PBM E-score of 8-mer
GGTACGAA | 0.0997 ± 0.059
AGGCGAAT | -0.205 ± 0.13
GCTCACAC | 0.448 ± 0.0095
GAGATGCA | -0.221 ± 0.028
ATGCTGGG | -0.196 ± 0.073
CAATCCCA | -0.0448 ± 0.046
ATACATGG | -0.0733 ± 0.039
CGCTTGAA | -0.24 ± 0.034
ACGTGAGG | 0.196 ± 0.024
ATTAATGA | -0.134 ± 0.058
ATCAGAGG | -0.0774 ± 0.0049
AAACAATC | -0.11 ± 0.0064
AGGGGCGC | -0.00409 ± 0.022
AAGGAGCC | 0.0708 ± 0.044
AAACTTTC | 0.0486 ± 0.12
ACAGGCGT | 0.301 ± 0.033
ATCTTTAA | -0.0261 ± 0.074
ACTTATAT | 0.0004 ± 0.014
AGGAGGAG | -0.0652 ± 0.07
CTTTGATA | -0.221 ± 0.049
CGGTGTTC | -0.0703 ± 0.07
CCATGCTC | -0.0405 ± 0.029
CTCTGTGC | -0.107 ± 0.059
CAAAAGAA | -0.134 ± 0.087
CAAGATTA | -0.105 ± 0.0015

Sequence | PBM E-score of 8-mer
CTTGTCTC | 0.0999 ± 0.049
AAAGCCCC | -0.2691 ± 0.001
CAAAGCAG | -0.102 ± 0.032
CGGTATCA | 0.0955 ± 0.017
CCAACGGG | -0.0354 ± 0.0071
GACGTCCC | -0.218 ± 0.012
AGAACATG | -0.0968 ± 0.0091
AGGTCGGA | -0.141 ± 0.0084
TGCTTAAA | -0.173 ± 0.02
GCCCTTCA | -0.196 ± 0.039
CATGTATC | 0.0485 ± 0.0023
TAAACCAA | -0.0254 ± 0.016
ATTTACTC | -0.0963 ± 0.037
AGCGTAAT | -0.0418 ± 0.029
CGGCTGCC | -0.0159 ± 0.021
AGGATGTG | 0.116 ± 0.074
ACGGGCCG | -0.12 ± 0.11
TCCAGTCA | -0.0542 ± 0.066
GATTTAGC | 0.00308 ± 0.088
GCATGACA | 0.09 ± 0.029
ATAGACAT | -0.313 ± 0.052
CTTCGGCC | -0.157 ± 0.014
GGAGACCC | -0.29 ± 0.027
GATTGCCA | 0.132 ± 0.0054
AACCAAAT | -0.101 ± 0.03

Sequence | PBM E-score of 8-mer
CTGCGTTA | -0.0548 ± 0.086
ATTATGAG | -0.0244 ± 0.034
ATCCACAG | -0.0171 ± 0.029
AGTAGGGG | -0.125 ± 0.01
AGTCTTCA | 0.0409 ± 0.02
AACGAGGC | -0.0658 ± 0.071
AAAGTTGT | 0.1789 ± 0.00091
GGCTGTGA | 0.274 ± 0.0031
GAGCAACC | -0.144 ± 0.084
ATTAGACG | -0.115 ± 0.03
ATTGAATA | -0.0528 ± 0.065
CGAACGGC | 0.0622 ± 0.0044
CACTAGGG | -0.191 ± 0.07
GGACACAC | 0.0866 ± 0.0081
AGTACAAC | -0.0481 ± 0.064
ACTCAGGG | -0.0222 ± 0.03
CGAGCGCG | 0.179 ± 0.038
CCTAGTTC | -0.0342 ± 0.022
CAATGCGG | -0.122 ± 0.075
AAGTATAG | -0.141 ± 0.066
ACTCGTCG | -0.0181 ± 0.081
TATTTTCA | 0.0115 ± 0.1
AGCTACCT | -0.202 ± 0.074
TCTGGGAA | -0.16 ± 0.04
ATTGCGAG | 0.183 ± 0.0077

Sequence | PBM E-score of 8-mer
AATCGACA | 0.192 ± 0.036
GCCACCAA | 0.168 ± 0.011
CACACCAA | 0.38 ± 0.017
ATGTCATA | -0.202 ± 0.0053
GTTCTAGA | -0.188 ± 0.042
CTGCTCCA | -0.261 ± 0.033
AGCTTTTG | -0.248 ± 0.092
TCGTCGAA | 0.136 ± 0.029
GGTCTCCA | -0.178 ± 0.031
GAGTCTTA | -0.0602 ± 0.044
AATTACGA | -0.074 ± 0.11
CCTTGACG | 0.119 ± 0.013
AGAGCGTG | 0.191 ± 0.021
CCATGACC | -0.197 ± 0.032
AGCCGCGC | 0.156 ± 0.015
CACAAGGG | 0.0548 ± 0.046
AGGTGGCC | 0.075 ± 0.0048
AGTGGGAC | 0.0381 ± 0.061
ATAAGTAG | 0.0492 ± 0.11
ACACAGGT | 0.0709 ± 0.053
CTTATCTA | -0.176 ± 0.036
ATGCGAAA | 0.08 ± 0.092
CCTTCCAG | -0.129 ± 0.041
GGCCCGCA | -0.148 ± 0.051
AGATGCCA | -0.0466 ± 0.0036

Sequence | PBM E-score of 8-mer
AATGAAGA | -0.0655 ± 0.0055
TATGATCA | -0.136 ± 0.022
AGAGGTAA | -0.158 ± 0.039
GATCCGAA | -0.149 ± 0.027
ATGGAACA | -0.149 ± 0.023
AGGGAAAC | -0.168 ± 0.048
CCCTTAGC | 0.0731 ± 0.092
CGTTAAAC | 0.141 ± 0.061
CACTAAAA | 0.111 ± 0.017
GGAAAAGA | -0.182 ± 0.073
ATTACGGA | -0.146 ± 0.017
AGGATCTA | -0.253 ± 0.084
GGCCGCAC | 0.209 ± 0.043
GATGTAAA | -0.184 ± 0.0032
TCGTAACA | 0.236 ± 0.033
AATCCCGT | -0.191 ± 0.024
GCCGCGCA | 0.026 ± 0.02
ACTCAGGA | -0.0747 ± 0.031
AAGATCGG | -0.0617 ± 0.039
GCGGTAAC | 0.154 ± 0.058
AAAACGTG | 0.225 ± 0.0046
GGCCGAAA | -0.148 ± 0.044
CTCCTTGC | -0.173 ± 0.0052
AACGAAGA | -0.078 ± 0.058
CCTATGGC | 0.0599 ± 0.083

Sequence | PBM E-score of 8-mer
AAACGGTC | -0.114 ± 0.041
AGAATGGG | -0.154 ± 0.054
GGCAGTGA | 0.0363 ± 0.075
AAAAGTTA | 0.0517 ± 0.032
ACTTTCGA | 0.0223 ± 0.045
GCGTACGC | -0.126 ± 0.033
AATCGGCA | -0.0412 ± 0.086
CAAAAGAG | 0.00863 ± 0.022
CTCACTGA | 0.111 ± 0.044
GGGCAGAC | -0.254 ± 0.013
CACCGGCC | -0.0438 ± 0.011
CGATGGAC | -0.125 ± 0.002
AATTCAAC | -0.101 ± 0.031
CTCCGGAA | -0.123 ± 0.049
GACTACGC | -0.0782 ± 0.051
ACTATCCG | 0.0311 ± 0.025
ATATTTGG | -0.125 ± 0.038
CCTACAGG | -0.0723 ± 0.028
TCTTTCCA | -0.145 ± 0.069
CCAGCCCG | -0.222 ± 0.059
ATAACAAG | 0.193 ± 0.064
AAAGGTAA | -0.15 ± 0.0096
CTACCTAC | -0.293 ± 0.0051
CACAGGTA | 0.141 ± 0.0043
AACTACTT | 0.0434 ± 0.044

Sequence | PBM E-score of 8-mer
CAAGCGGG | -0.2261 ± 0.0012
GGGGTCAC | 0.103 ± 0.041
AGAAATTA | -0.258 ± 0.012
AGAGGAGA | -0.116 ± 0.043
CAACGAAC | -0.1 ± 0.061
CTGCCGGC | 0.0699 ± 0.029
GTGGAACA | 0.0786 ± 0.038
GAAACAGA | -0.1542 ± 0.0003
TACCCACA | 0.134 ± 0.038
TCTCCCCA | -0.0395 ± 0.025
ATGCCGGA | -0.308 ± 0.05
GGCCGGTA | -0.0898 ± 0.023
TAAGGGTA | -0.1207 ± 0.0011
CAATAACC | -0.0937 ± 0.02
ACCCTTCA | 0.112 ± 0.077
CCTTATAG | -0.137 ± 0.0069
TAGATTGA | -0.249 ± 0.036
CCATATCG | -0.125 ± 0.032
ACTAAGCC | -0.223 ± 0.02
